# Assay results: PubChem BioAssay AID588453 (National Center for Advancing Translational Sciences (NCATS), 2011)
# Out of some 390,000 compounds screened, about 4,000 (1%) were called active. This list was built around the results that the source calls inconclusive (neither active nor inactive); the mix of calls is not that of the screen. Calls come from the whole dose curve; as a rule, active = well fitted inhibition curve with a large enough effect; inconclusive = small, poorly fitted or top-dose-only effect; inactive = no such curve, though single readings can be large or run the other way. Potencies beside an inconclusive call are fits to weak or partial responses and may not hold up.
# Biological target: Thioredoxin reductase 1, cytoplasmic (Rattus norvegicus) (UniProt O89049)
# Chain of UniProt O89049 (O89049 whole entry, looked up): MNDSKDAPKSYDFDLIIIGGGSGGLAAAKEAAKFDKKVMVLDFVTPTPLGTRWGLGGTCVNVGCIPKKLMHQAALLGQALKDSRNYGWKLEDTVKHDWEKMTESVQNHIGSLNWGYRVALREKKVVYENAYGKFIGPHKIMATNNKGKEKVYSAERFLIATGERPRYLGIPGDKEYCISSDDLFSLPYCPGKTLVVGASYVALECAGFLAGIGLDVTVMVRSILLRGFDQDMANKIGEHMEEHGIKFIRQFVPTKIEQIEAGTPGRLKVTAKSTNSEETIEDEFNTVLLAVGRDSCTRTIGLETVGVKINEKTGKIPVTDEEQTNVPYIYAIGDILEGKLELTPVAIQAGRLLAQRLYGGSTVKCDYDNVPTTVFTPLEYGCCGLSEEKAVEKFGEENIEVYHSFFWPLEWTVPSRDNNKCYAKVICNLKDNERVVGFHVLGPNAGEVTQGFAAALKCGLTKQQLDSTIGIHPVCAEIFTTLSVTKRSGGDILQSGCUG
# Test: qHTS Assay for Inhibitors of Mammalian Selenoprotein Thioredoxin Reductase 1 (TrxR1): qHTS; note: nearly all actives have a fitted effect of over 65% in size
# Conditions: recombinant rTrxR1, NADPH fluorescence consumption, selenite substrate; series mostly up to 114 µM
# Method in brief: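 Rat TrxR1 (90 nM in the dispensed reagent) was pre-reduced with 400 uM NADPH for 5 min at room temperature, then incubated with compound for 15 min. After 400 uM selenite was added, NADPH fluorescence (Ex 340/Em 450 nm) was followed for 8 min.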
# Potency is the fitted concentration of half-maximal effect; tags give direction and shape of the fitted curve.
row,SMILES,Potency
1,COc1ccc(C(C)=O)cc1COC(=O)CCC(=O)c1cccs1,"inconclusive: 39.8 µM [inhibitor, partial curve, poor fit]"
2,O=C(NCc1ccccc1F)C(c1ccccc1)c1ccccc1,inactive
3,CC(/C=C/c1ccco1)=N\NC(=O)c1cccc(Cl)c1,"inconclusive: 44.7 µM [inhibitor, partial curve, poor fit]"
4,Nn1c(SC/C=C/c2ccccc2)nnc1-c1ccco1,"inconclusive: 79.4 µM [inhibitor, single point]"
5,CC1(C)CC(=O)C(C(c2ccc(Br)cc2)C2C(=O)CC(C)(C)CC2=O)C(=O)C1,active: 7.94 µM
6,O=C(N/N=C/c1cccs1)c1cncc(Br)c1,inactive
7,O=C(O)c1ccc(CS(=O)(=O)c2cccc(C(F)(F)F)c2)o1,"inconclusive: 56.2 µM [inhibitor, partial curve, poor fit]"
8,CC1CCC(C(C)C)C2=C1C(C#N)(C#N)C(C#N)(C#N)C(c1ccccc1)N2 (stereo not given),"inconclusive: 20 µM [inhibitor, single point]"
9,CNC(=S)N(Cc1ccco1)Cc1cc2cc3c(cc2[nH]c1=O)OCCO3,"inconclusive: 12.6 µM [inhibitor, full curve]"
10,CN(CCC(=O)c1ccccc1)CCC(=O)c1ccccc1,"inconclusive: 0.316 µM [inhibitor, partial curve, poor fit]"
11,CN(C)C(=O)c1cn(-c2ccccc2)nc1-c1cc2ccccc2oc1=O,inactive
12,COc1ccccc1CCNC(=O)c1ccoc1C,"inconclusive: 10 µM [inhibitor, full curve]"
13,CCOc1cc([N+](=O)[O-])cc(/C=N/NC(=O)c2c(-c3ccccc3)noc2C)c1O,inactive
14,O=C(C[n+]1ccncc1Cl)c1ccc(F)cc1,"inconclusive: 70.8 µM [inhibitor, partial curve]"
15,C1=Cc2ccccc2/C1=C\c1cc2c3c(c1)CCCN3CCC2,"inconclusive: 79.4 µM [inhibitor, partial curve, poor fit]"
16,Cc1ccc(C(=O)O)cc1NC(=S)NC(=O)c1ccc([N+](=O)[O-])c(C)c1,"inconclusive: 50.1 µM [inhibitor, partial curve]"
17,COc1ccccc1NC(=S)N(Cc1ccco1)Cc1cc2cc(C)c(C)cc2[nH]c1=O,"inconclusive: 8.91 µM [inhibitor, partial curve, poor fit]"
18,Cc1cc(C)cc(NC(=O)COc2coc(CN3CCc4ccccc43)cc2=O)c1,"inconclusive: 89.1 µM [inhibitor, partial curve, poor fit]"
19,C#CCOCCOCCOCCNc1nc(N2CCN(C(=O)C(CCC(=O)O)n3cc(C(N)CC(C)C)nn3)CC2)nc(N2CCN(C(=O)C(Cc3cc4ccccc4[nH]3)n3cc(C(N)Cc4ccc(O)cc4)nn3)CC2)n1 (stereo not given),"inconclusive: 50.1 µM [inhibitor, partial curve, poor fit]"
20,FC(F)(F)c1cc(-c2ccco2)nc(NCCc2ccccc2)n1,"inconclusive: 15.8 µM [inhibitor, partial curve, poor fit]"
21,CC1CC=CC2C1C(=O)N(Cc1ccccc1)C2c1ccc(-c2ccc(F)cc2)cc1F (stereo not given),inactive
22,COC(=O)c1cc(Cl)c(NC(=O)/C=C/c2ccc(OC)c(OC)c2)cc1OC,"inconclusive: 35.5 µM [inhibitor, single point]"

row,SMILES,Potency
1,Cc1ccccc1NC(=O)CSc1nc(N)c(C#N)c(-c2cccs2)c1C#N,inactive
2,CCCC(=O)NC(=S)Nc1ccccc1C(F)(F)F,"inconclusive: 28.2 µM [inhibitor, partial curve]"
3,CC1(C)CCSC(/C=C/c2ccccc2)=N1,"inconclusive: 39.8 µM [inhibitor, partial curve, poor fit]"
4,COc1cccc(-n2cc(C(=O)Oc3cccc(C(F)(F)F)c3)c3ccccc3c2=O)c1,inactive
5,CCCCCC(=O)NC(=S)Nc1cccc(C(C)=O)c1,"inconclusive: 89.1 µM [inhibitor, single point]"
6,Cc1cc(Cl)c(S(=O)(=O)N2CCN(c3ccc(F)cc3)CC2)cc1OCC(=O)NC1CCCCC1,inactive
7,COc1cc(C(=O)NCCc2c[nH]c3ccccc23)ccc1OCc1c(C)noc1C,"inconclusive: 6.31 µM [inhibitor, single point]"
8,O=C(O)c1cc(Cl)c2c(c1)[C@@H]1C=CC[C@@H]1[C@H](c1ccc(S(=O)(=O)N3CCOCC3)cc1)N2,active: 2.24 µM
9,Cc1c(N=NC2=C(O)CCCC2=O)c(=O)n(-c2ccccc2)n1C,inactive
10,CCOc1ccc(OCC)c(NC(=O)C(NS(=O)(=O)c2ccc(Br)s2)c2ccccc2)c1 (stereo not given),inactive
11,Nc1c(-c2nc(-c3cccs3)no2)nnn1-c1cccc(F)c1,inactive
12,Cc1c(/C=C/C(=O)c2cccs2)cnn1C,"inconclusive: 35.5 µM [inhibitor, partial curve]"
13,CC(C)(C)c1cc(C(=O)NCc2ccco2)ccn1,"inconclusive: 20 µM [inhibitor, partial curve, poor fit]"
14,Nc1c(Cl)ncnc1N/N=C/c1ccncc1,"inconclusive: 70.8 µM [inhibitor, partial curve, poor fit]"
15,Cc1c(CC(=O)NCCCO)c(=O)oc2cc3c(cc12)CCC(C)(C)O3,active: 56.2 µM
16,O=C(COC(=O)c1cc[n+]([O-])cc1)Nc1ccccc1Sc1ccccc1,"inconclusive: 89.1 µM [inhibitor, single point]"
17,COC(=O)C1=C(C)OC(N)=C(C#N)C1c1cc(OC)c(OCC(N)=O)cc1Cl (stereo not given),"inconclusive: 44.7 µM [inhibitor, partial curve]"
18,Cc1occc1-c1nnc(SCC(=O)c2c[nH]c3ccccc23)n1C,"inconclusive: 28.2 µM [inhibitor, partial curve, poor fit]"
19,O=C(/C=C/c1ccco1)NC(=S)Nc1cccc(-c2nc3ccccc3o2)c1,"inconclusive: 12.6 µM [inhibitor, partial curve, poor fit]"
20,COc1ccc(N=Cc2nc(-c3ccccc3)oc2OC(=O)c2ccccc2)cc1,"inconclusive: 10 µM [inhibitor, full curve]"
21,C=CC[n+]1c(/C=C/c2ccc(OC(C)=O)c(OC)c2)ccc2ccccc21,"inconclusive: 56.2 µM [inhibitor, partial curve, poor fit]"
22,O=[N+]([O-])c1cc(C(F)(F)F)cc([N+](=O)[O-])c1Sc1n[nH]c(C(F)(F)F)n1,"inconclusive: 14.1 µM [inhibitor, full curve]"

row,SMILES,Potency
1,O=C1/C(=C/c2cccnc2)SC(=S)N1N1CCOCC1,"inconclusive: 44.7 µM [inhibitor, partial curve, poor fit]"
2,Cc1cccc(C(=O)Nc2ccc(-c3nc4cc(C(C)C)ccc4o3)cc2)c1,inactive
3,COc1cccc(CCNC(=O)CC2C(=O)NCCN2CC(C)(C)C)c1 (stereo not given),"inconclusive: 89.1 µM [inhibitor, single point]"
4,COc1ccc(-c2cc(C(=O)OCC(=O)Nc3ccc4c(c3)OCO4)c3ccccc3n2)cc1,"inconclusive: 50.1 µM [inhibitor, single point]"
5,O=C(O)CCCCCCCCCCP(=O)(c1ccccc1)c1ccccc1,inactive
6,C=CCNC(=O)CSc1nc2scc(-c3ccco3)c2c(=O)n1CC=C,"inconclusive: 56.2 µM [inhibitor, partial curve, poor fit]"
7,O=C(c1ccco1)N1CCN(c2c(-c3ccccc3)c3cc(Cl)ccc3[nH]c2=O)CC1,"inconclusive: 15.8 µM [inhibitor, partial curve, poor fit]"
8,Cc1ccc2c(n1)sc1c(-c3ccc(Br)cc3)c(C#N)c(N)nc12,"inconclusive: 7.94 µM [inhibitor, single point]"
9,CCCCC(c1nnnn1Cc1ccco1)N1CCN(c2nc3ccccc3s2)CC1 (stereo not given),"inconclusive: 50.1 µM [inhibitor, partial curve]"
10,Nc1cc2sc(-c3ccc(C(=O)O)cc3)nc2cc1Cl,"inconclusive: 89.1 µM [inhibitor, partial curve, poor fit]"
11,O=[N+]([O-])c1cccc(C2Nc3cccc4cccc(c34)N2)c1,active: 50.1 µM
12,Cc1ccc(CN2CCC(CNC(=O)c3cc4ccc5cccnc5c4[nH]3)CC2)cc1,inactive
13,CCn1c(-c2csc(C(C)C)c2)n[nH]c1=S,"inconclusive: 1.78 µM [inhibitor, full curve, poor fit]"
14,COC(=O)[C@@H](N)Cc1ccc(O)c(O)c1,"inconclusive: 7.52 µM [inhibitor, full curve]"
15,COc1ccc(-c2noc(COc3cc(C)c(Br)c(C)c3)n2)cc1OC,inactive
16,CN(C)CC(=O)c1c[nH]c2ccccc12,"inconclusive: 44.7 µM [inhibitor, partial curve, poor fit]"
17,COC(=O)C1=C(C)N(C(C)c2ccccc2)C(=O)/C1=C\c1ccco1 (stereo not given),active: 28.2 µM
18,COc1ccc(C(=O)N(C)Cc2ccc(C)o2)cc1OC1CCN(C(C)=O)CC1,"inconclusive: 17.8 µM [inhibitor, full curve]"
19,CN(C(=O)COC(=O)Cc1c(Cl)cccc1Cl)c1c(N)n(Cc2ccccc2)c(=O)[nH]c1=O,"inconclusive: 89.1 µM [inhibitor, single point]"
20,O=c1oc2ccccc2nc1/C=C(O)/C=C\c1ccccc1,"inconclusive: 12.6 µM [inhibitor, full curve]"
21,COc1cc(/C=N/O)ccc1Oc1ccc([N+](=O)[O-])cc1[N+](=O)[O-],"inconclusive: 79.4 µM [inhibitor, single point]"
